These are yes or no findings as the source states them, for the method shown. In cells and extracts the contact can be indirect. Some results given as binding are weak or reduced against the parent protein; the word gives no strength.

Protein sequences, listed by entry. Tags and fused reporters are not part of them.
UniProt O96013: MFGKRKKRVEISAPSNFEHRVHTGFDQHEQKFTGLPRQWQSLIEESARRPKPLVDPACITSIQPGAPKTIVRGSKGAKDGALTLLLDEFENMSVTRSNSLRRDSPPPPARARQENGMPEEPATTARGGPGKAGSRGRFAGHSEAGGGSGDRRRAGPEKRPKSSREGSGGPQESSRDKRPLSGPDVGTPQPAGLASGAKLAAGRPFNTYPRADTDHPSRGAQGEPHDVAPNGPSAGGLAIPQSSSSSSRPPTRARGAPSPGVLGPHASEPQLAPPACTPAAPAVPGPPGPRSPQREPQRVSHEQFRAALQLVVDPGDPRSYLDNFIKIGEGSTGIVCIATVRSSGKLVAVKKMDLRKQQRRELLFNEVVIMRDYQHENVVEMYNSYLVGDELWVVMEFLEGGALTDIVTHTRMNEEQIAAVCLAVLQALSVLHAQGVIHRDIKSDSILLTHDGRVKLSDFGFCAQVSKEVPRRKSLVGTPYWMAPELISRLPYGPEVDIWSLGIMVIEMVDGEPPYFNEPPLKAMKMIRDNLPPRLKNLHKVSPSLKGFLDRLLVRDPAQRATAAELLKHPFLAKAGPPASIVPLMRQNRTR
UniProt P03372: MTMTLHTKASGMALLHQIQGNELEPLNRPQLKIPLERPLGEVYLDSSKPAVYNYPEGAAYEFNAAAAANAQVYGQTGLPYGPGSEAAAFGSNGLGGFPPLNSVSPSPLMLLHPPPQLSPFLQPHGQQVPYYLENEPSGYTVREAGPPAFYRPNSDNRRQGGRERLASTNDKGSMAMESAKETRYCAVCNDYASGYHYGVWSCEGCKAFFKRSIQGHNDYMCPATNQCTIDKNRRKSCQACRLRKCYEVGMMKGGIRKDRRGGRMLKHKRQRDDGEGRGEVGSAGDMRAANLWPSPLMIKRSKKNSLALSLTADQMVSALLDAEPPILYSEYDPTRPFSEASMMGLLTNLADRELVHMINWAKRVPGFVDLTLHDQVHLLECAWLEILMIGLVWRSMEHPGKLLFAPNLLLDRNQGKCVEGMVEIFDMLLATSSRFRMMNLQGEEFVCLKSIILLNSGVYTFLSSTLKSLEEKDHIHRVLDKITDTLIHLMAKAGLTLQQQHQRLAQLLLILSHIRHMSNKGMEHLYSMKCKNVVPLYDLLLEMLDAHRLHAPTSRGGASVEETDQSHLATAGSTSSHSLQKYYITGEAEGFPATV
UniProt Q13547: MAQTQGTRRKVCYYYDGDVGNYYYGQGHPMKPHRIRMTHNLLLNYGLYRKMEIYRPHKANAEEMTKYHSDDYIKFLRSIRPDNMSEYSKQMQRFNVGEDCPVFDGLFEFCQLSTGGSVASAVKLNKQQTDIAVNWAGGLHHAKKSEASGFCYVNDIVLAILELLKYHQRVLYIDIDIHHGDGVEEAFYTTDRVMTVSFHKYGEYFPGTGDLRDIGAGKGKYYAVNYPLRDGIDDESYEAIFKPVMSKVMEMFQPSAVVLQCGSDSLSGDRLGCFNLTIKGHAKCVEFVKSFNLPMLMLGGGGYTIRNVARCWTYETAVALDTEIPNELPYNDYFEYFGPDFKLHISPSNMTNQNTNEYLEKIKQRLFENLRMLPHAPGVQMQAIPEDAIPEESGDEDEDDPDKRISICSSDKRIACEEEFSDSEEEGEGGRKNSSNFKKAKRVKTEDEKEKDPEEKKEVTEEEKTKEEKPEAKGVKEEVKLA

The text below walks through data of paper PMC6367215.

One assay has as its target GST-PAK4 (human) (UniProt O96013). As to the kind of experiment: pull-down; GST or GST-fusion proteins on glutathione-conjugated Sepharose beads incubated with proteins transcribed and translated in vitro; bound proteins detected by auto-radiography; only the target purified.
The target of assay [1] is p21-activated kinase 4 (PAK4), endogenous (human (endogenous in MCF-7 and ZR-75-30)) (UniProt O96013). As to the kind of experiment: co-IP; endogenous proteins in MCF-7 cells (Supplementary Figure 3b).
Assay [2] concerns the target PAK4, exogenous in HEK 293T cells (human) (UniProt O96013). The assay is described as follows: co-IP; exogenous proteins in HEK 293T cells (Supplementary Figure 3a).
The next assay deals with GST-ERα (human) (UniProt P03372). As to the kind of experiment: pull-down; GST or GST-fusion proteins on glutathione-conjugated Sepharose beads incubated with proteins transcribed and translated in vitro; bound proteins detected by auto-radiography; only the target purified.
For assay [3], the target named is p21-activated kinase 4 (PAK4), endogenous (human (endogenous in MCF-7 and ZR-75-30)) (UniProt O96013). As to the kind of experiment: co-IP; MCF-7 cells without E2 stimulation (Supplementary Figure S2).
For assay [4] the target is unchanged. As to the kind of experiment: co-IP; nuclear fraction of MCF-7 cells treated with E2 (10^-9 M) for 45 min.
Assay [5] shares this target. The assay is described as follows: co-IP; MCF-7 and ZR-75-30 cell lysates immunoprecipitated with PAK4 antibodies or IgG; endogenous ERα and PAK4 detected by immunoblot. Background: Immunoblotting shows a protein as a band on a membrane.
For assay [6] the target is unchanged. The assay is described as follows: condition: only cytoplasmic extracts of MCF-7 cells treated with E2 (10^-9 M) for 45 min; co-IP; cytoplasmic fraction of MCF-7 cells treated with E2 (10^-9 M) for 45 min.

Consider “ERα, transcribed and translated in vitro (from UniProt P03372 1-595) (receptor)”, for which the binding entry with GST-PAK4 (human) was “binds”. With “HDAC1, endogenous (from UniProt Q13547 1-482) (enzyme)”, the binding entry in assay [1] was “binds”. As to “HDAC1, exogenous in HEK 293T cells (from UniProt Q13547 1-482) (enzyme)”, the binding result in assay [2] is on record as “binds”. As for “PAK4, transcribed and translated in vitro (from UniProt O96013 1-591) (enzyme)”, the binding result with GST-ERα (human) is “binds”.

As to “estrogen receptor alpha (ERα), endogenous (from UniProt P03372 1-595)”, the binding entry is “no binding (condition: without E2 stimulation)” in assay [3], “binds” in assay [4], “binds” in assay [5] and “no binding” in assay [6].
